This is one part of the list. Shown are side measurements of this screen, not its main read-out; they come without a call. The list favours compounds with an active or inconclusive main result. The note in brackets gives the kind of curve behind each potency; many fits are weak.

The term IC50 denotes the concentration that gives 50% inhibition.
Tags tell the direction and shape of the fitted curve.

In this experiment the target is Histamine N-methyltransferase (Homo sapiens) (UniProt P50135). The experiment in a line: Confirmatory Screen for Target Class Profiling of Small Molecule Inhibitors of Methyltransferases (AID 1745852).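 Also: inhibitor potency for blocking SAH production.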 The following applies: MTase-Glo luminescence, SAH detection, recombinant enzyme; measured here: HNMT inhibition potency.
Chain of UniProt P50135 (P50135 whole entry, looked up): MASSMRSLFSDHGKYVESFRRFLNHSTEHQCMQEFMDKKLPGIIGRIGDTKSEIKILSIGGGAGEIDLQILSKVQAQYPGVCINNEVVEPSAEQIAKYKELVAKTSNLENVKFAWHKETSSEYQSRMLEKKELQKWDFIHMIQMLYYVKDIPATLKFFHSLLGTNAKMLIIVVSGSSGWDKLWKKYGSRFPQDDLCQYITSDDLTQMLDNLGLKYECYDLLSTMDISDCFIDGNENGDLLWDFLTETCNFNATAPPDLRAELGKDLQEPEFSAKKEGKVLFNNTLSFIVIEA
As for `CC(C)c1nc(-c2ccc(NC(=O)Nc3cccc(C(F)(F)F)c3)c3ccccc23)c2c(N)nccn12`, the 50% inhibitory concentration (IC50) is 21.5 µM [falling, partial curve].

Take `Cn1c(COc2cccc(CN3CCCC3)c2Cl)nnc1C1CC(N)C1` (centres undefined): the IC50 is 12.1 µM [falling, full curve].

Consider `O=S(=O)(c1ccc(Br)cc1)c1nnn2c1nc(NCCc1c[nH]c3ccccc13)c1ccccc12`, for which the IC50 is 17.1 µM [falling, partial curve].

`O=C(CCc1nnc2n(Cc3ccc(F)cc3)c(=O)c3ccccc3n12)NCCN1CCCC1`: the IC50 is 15.2 µM [falling, partial curve].

For `CN1CCN(Cc2ccc(NC(=O)Cc3ccc(Oc4cc(NC(=O)C5CC5)ncn4)cc3)cc2C(F)(F)F)CC1`, the 50% inhibitory concentration (IC50) was 19.2 µM [falling, partial curve].

As to `CCCC1=Nc2cc(C(=O)NCCCN3CCCCC3CC)ccc2Sc2ccc(C)cc21` (centres undefined), the IC50 is 15.2 µM [falling, partial curve].

Consider `CC1CCN(CCCNC(=O)CCc2nnc3n(Cc4ccccc4Cl)c(=O)c4ccccc4n23)CC1`, for which the IC50 is 10.8 µM [falling, partial curve].

In the case of `c1ccc(-c2cc3c(cn2)NCCN(CC2CC2)C3)cc1`, the IC50 was 27.8 µM [falling, partial curve].

In the case of `Cc1ncc(CCCN(C)C)cc1Nc1ncc2c(n1)-c1ccc(C(F)(F)F)cc1NC(=S)C2`, the IC50 was 19.2 µM [falling, partial curve].

As for `CN(C)C/C=C/C(=O)Nc1cccc(C(=O)Nc2ccc(Nc3nccc(-c4cccnc4)n3)cc2)c1`, the IC50 is 4.29 µM [falling, full curve].

Turning to `COc1cc(C(=O)NC2CCN(C)CC2)ccc1Nc1ncc2c(n1)N(C1CCCC1)CC(F)(F)C(=O)N2C`, the IC50 is 19.2 µM [falling, partial curve].

Regarding `COC(=O)C1=C2Nc3ccccc3C23CCN2CCCC(C(C)O)(C1)C23` (centres undefined), the IC50 was 14.9 µM [falling, partial curve].

Turning to `COc1cc2c(Nc3cc(F)c(Cl)c(Cl)c3)ncnc2cc1OCC1CCCN(C)CCC1`, the IC50 was 19.2 µM [falling, partial curve].

For `CCN(CC)CCNC(=O)CCc1nnc2n(Cc3ccccc3Cl)c(=O)c3ccccc3n12`, the IC50 is 21.5 µM [falling, partial curve].

`Cn1cnc(CN2CCNc3cc(Nc4ccccc4)ncc3C2)c1`: the IC50 was 9.87 µM [falling, partial curve].

For the compound `CC1CCCCN1CCCNC(=O)c1cc2c(s1)CN(C1CCCC1)C2` (centres undefined), the IC50 was 19.2 µM [falling, partial curve].

Take `O=C(Nc1ccc2c(N3CCCCC3)ncnc2c1)c1ccccc1C(F)(F)F`: the IC50 is 19.2 µM [falling, partial curve].

`O=C(CCCc1nnc2n3nc(-c4ccccc4)nc3c3ccccc3n12)NCCCN1CCCCC1`: the IC50 was 4.82 µM [falling, full curve].

For the compound `CC(=O)NC1CC2(CCN(Cc3ccc(O)cc3)CC2)c2ccccc21` (centres undefined), the concentration for half-maximal inhibition (IC50) is 23.9 µM [falling, partial curve, poor fit].

Regarding `O=C(c1ccc(C2CCCNC2)cc1)N1CCN(c2ccncc2)CC1` (centres undefined), the IC50 was 0.681 µM [falling, full curve].

`CCC(=O)N1CCOc2c(cc(-c3ccc(OC)c(OC)c3)cc2OC[C@H]2CCCN(C)C2)C1`: the IC50 was 21.5 µM [falling, partial curve].

In the case of `CN(CCCNC(=O)CCCc1nnc2n3nc(-c4ccccc4)nc3c3ccccc3n12)Cc1ccccc1`, the half-inhibitory concentration (IC50) was 5.41 µM [falling, full curve].

Consider `CCNc1ncc(CN2CCN(c3ccncc3)CC2)cn1`, for which the IC50 was 19.2 µM [falling, partial curve].

Turning to `COc1cccc(-c2cc(NCc3ccc4c(c3)OCO4)nc(N)n2)c1`, the IC50 is 21.5 µM [falling, partial curve].

Take `Cc1cc(-c2cc3c(cn2)N(C)CCN(C)C3)ccn1`: the IC50 is 39.3 µM [falling, partial curve].

Turning to `Oc1ccc(NCCN2CCCC2)cc1`, the IC50 was 44.1 µM [falling, partial curve].

For the compound `c1ccc(CO[C@H]2COCCN(c3nc4ccccc4o3)C2)cc1`, the IC50 is 24.8 µM [falling, partial curve].

On to `NC(=O)C1(N2CCCCC2)CCN(c2nc3c(S(=O)(=O)c4ccccc4)nnn3c3ccccc23)CC1`, for which the IC50 is 10.8 µM [falling, partial curve].

For `CCOC(=O)CCN(C(=O)c1ccc2c(c1)nc(CNc1ccc(C(=N)N)cc1)n2C)c1ccccn1`, the IC50 is 1.71 µM [falling, full curve].

As to `CCCn1c(C)cnc1CC1CCN(C(=O)NCc2ccc(OC)cc2)C1` (centres undefined), the IC50 was 17.1 µM [falling, partial curve].

`COc1cc2c(NC3CCN(CC4CCCCC4)CC3)nc(N3CCCN(C(C)C)CC3)nc2cc1OCCCN1CCCCC1`: the IC50 was 4.29 µM [falling, full curve].

Take `CCCCN1C(=O)c2cc(C(=O)NCCc3ccccc3Cl)nn2CC1(C)C(=O)NC1CCCC1` (centres undefined): the IC50 was 15.2 µM [falling, partial curve].

As for `CN1C(=O)C(c2ccccc2)CC12CCN(c1ccnc(N)n1)CC2` (centres undefined), the IC50 was 21.5 µM [falling, partial curve].

Regarding `CC1CCN(CCCNC(=O)C2CCc3sc(C(=O)N4CCCC4)cc3C2)CC1` (centres undefined), the IC50 is 17.1 µM [falling, partial curve].

For the compound `CCN(CCc1nc2ccc(C)cc2[nH]1)C(=O)c1ccccc1C1CCNC1` (centres undefined), the IC50 was 3.04 µM [falling, full curve].

On to `Cc1cn(CCN2CCN(c3ccccc3-c3cc(C#N)cc(C(=O)NCCCN4CCCC4)c3)CC2)c2ccccc12`, for which the concentration for half-maximal inhibition (IC50) was 3.41 µM [falling, full curve].

In the case of `COc1ccc(N2CCN(C(=O)c3cc(NC(C)=O)cc4nc(C)ccc34)CC2)cc1`, the IC50 was 24.1 µM [falling, partial curve].

Take `COc1cccc(-c2cccc(C(=O)N3C[C@H](CO)C[C@H](CN(C)C)C3)c2)c1`: the IC50 is 10.8 µM [falling, partial curve].

On to `CCN1CCN(c2nc3c(S(=O)(=O)c4ccc(Br)cc4)nnn3c3ccccc23)CC1`, for which the IC50 is 10.8 µM [falling, partial curve].

The record behind these values is PubChem BioAssay (NCATS).
